Variants at the floor of the assay are shown more often than the library holds them.
B1: TPR 5TU (parent)
chain: GGAUCUUCUCGAUCUAACAAAAAAGACAAAUCUGCCACAAAGCUUGAGAGCAUCUUCGGAUGCAGAGGCGGCAGCCUUCGGUGGCGCGAUAGCGCCAACGUUCUCAACUAUGACACGCAAAACGCGUGCUCCGUUGAAUGGAGUUUAUCAUG

Variants of: B1
Assay: polymerase ribozyme fitness, log enrichment relative to wild type (log ratio); higher = more active; in vitro selection for triplet polymerase activity
Summary of the method: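 Input and output libraries were sequenced on Illumina after a single in vitro selection round, run in triplicate on PCR-built, transcribed mutant libraries of each subunit of a heterodimeric triplet polymerase ribozyme. Selection annealed libraries to a biotinylated primer, the partner subunit and triplets, incubated them frozen at −7 °C, then gel-excised extended constructs for streptavidin-bead capture and RT-PCR. Genotypes with ≥10 input reads and ≥1 read per output were kept. Fitness is the logarithm, taken in base 2, of genotype enrichment divided by wild-type enrichment, using inverse-variance-weighted replicate averages.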

With GGAUCUUCUCGAUCUAACAAAAAAGACAAAUCUGCCAUAACGCUUGAGAGCCUCUUCGGGUGCAGAGGCGGCAGCCUUCGGUGGUGCGAUAGCGCUAACGUUCUCAACUAUGACACGCAAAACGCGUGCUCCGUUGAAUGACGUUUAUCAUG [C38U A41C A52C A60G C85U C96U G141A A142C] as the variant, how does the “polymerase ribozyme fitness (log ratio)” value read?
The value was at most -4.2.

For GGAUCUUCUCGAUCUAACAAAAAAGACAAAUCUGCCAGAAAGCUUGAGAGCAUCUUCGGAUGCAGAGGCGGCAGCCUUCGGUGGCGCGAUAGCGACAACGUUCUCAACUAUGACACGCAAAACGCGUGCUCCGUUGAAUGGAGUUUAUCUUG [C38G C95A A150U], which “polymerase ribozyme fitness (log ratio)” value is on record?
Its value is -0.802.

With GGAUCUUCUCGAUCUAACAAAAAAGACAAAUCUGCCAUAAAGCUUGCGAGCAUCUUCGGAUGUAGCGGCGGCAGCCUUCGGUGGCGGGAUAGCGCCAACGUUCUCAACUAUGACACGCAAAACGCGUGCUCCGUUGAAUGGAGUUCAUCAUG [C38U A47C C63U A66C C87G U146C] as the variant, how does the “polymerase ribozyme fitness (log ratio)” value read?
The value was at most -4.2.

For GGAUCUUCUCGAUCUAACAAAAAAGACAAAUCUGCCAGAAAGCUUGAGACCAUCUUCGGAUGCAGAGGCGGCAGCCUUCGGUGGCGCCAUAGCGCCAACGUGCGCAACUAUGACACGCAAAACGCGUGCUCCGUUGAAUGGAGUGUAGCAUG [C38G G50C G88C U102G U104G U145G U148G], which “polymerase ribozyme fitness (log ratio)” value is on record?
The value was at most -4.2.

Which “polymerase ribozyme fitness (log ratio)” value does the source give for GGAUCUUCUCGAUCUAACAAAAAAGACAAAUCUGCCAUAAAGCUUGAGAGCGUCUUCGGAUGCAGAGGCGCCAGCCUUCGGUGGCGCAAUAGCGCGAACAUUCUCCACUAAGACACGCAAAACGCGUGCUCCGUUGCAUGGAGUUUAUCAUG [C38U A52G G71C G88A C96G G100A A106C U111A A137C] here?
The value was at most -4.2.

With GGAUCUUCUCGAUCUAACAAAAAAGACAAAUCUGCCAGAAAGCUUGAGAGCAUCUUCGGAUGCAGAGGCGGCAGCCUUCGGUGGCUCGAUAGCGCCAACGUUCUCAACUAUGACACGUAAAACGCGUGCUCCGUUGAAUGGAGUUUAUCAUG [C38G G86U C118U] as the variant, how does the “polymerase ribozyme fitness (log ratio)” value read?
The value was -2.

For GGAUCUUCUCGAUCUAACAAAAAAGACAAAUCUGCCAUACAGCUUGAGAGCAUCUUCGGAUCCAUAGGCGGCACUCUUCGGUGGCGCGAUAGCGUCAACGUUCUCAACUAUGACACGCAAAACGCGUGCUCCGUUGAAUGGAGUUUAUCAUG [C38U A40C G62C G65U G74C C75U C95U], which “polymerase ribozyme fitness (log ratio)” value is on record?
The value was at most -4.2.

With GGAUCUUCUCGAUCUAACAAAAAAGACAAAUCUGCCAGAAAGCUUGAGAGCAACUACGGAUGCAGAGGCGGCAGCCUUCGGUGGCGCGUUAACGCCAACGUUCUCAACUAUGACACGCAAAACGCGUGCUCCGUUGAAUGGCGUUUAUGAUG [C38G U53A U56A A89U G92A A142C C149G] as the variant, how does the “polymerase ribozyme fitness (log ratio)” value read?
The value was at most -4.2.

With GGAUCUUCUCGAUCUAACAAAAAAGACAAAUCUGCCAUAAAGCUUGCGAGCAUCUUCGGAUGCAGAGGCGGCAGCCUUCGGUGGCGCGAUAGAGCCAACGUUCUCAACUAUGACACGCAAAACGUGUGCUCCGUUGAAUGGAGUUUAUCAUG [C38U A47C C93A C125U] as the variant, how does the “polymerase ribozyme fitness (log ratio)” value read?
The value was -3.16.

For GGAUCUUCUCGAUCUAACAAAAAAGACAAAUCUGCCAUAGAGCUUGAGCGCAUCUUCGGAUGCAGAGGCGGCAGCCUUCGUUGGCGCGAUAGCGACAACGUUCUCAACUAUGGCACGCAAAACGCAUGCUCCGUUGACUGGAGUUUAUCAUG [C38U A40G A49C G81U C95A A113G G126A A138C], which “polymerase ribozyme fitness (log ratio)” value is on record?
Its value is at most -4.2.

For GGAUCUUCUCGAUCUAACAAAAAAGACAAAUCUGCCAUAAUGCUUGAGACCAUCUUCGGAUGCAGAGGCGGCAGGCUUCGGUGGCGCGAUAGCGCCAACGUUCUCAUCUAUGACACGCAAAACGCGUGCUCCGUUGAAUGGAGUUUAUCAUG [C38U A41U G50C C75G A107U], which “polymerase ribozyme fitness (log ratio)” value is on record?
Its value is at most -4.2.

With GGAUCUUCUCGAUCUAACAAAAAAGACAAAUCUGCCAGAAAGCUAGAGAGCAUCUUCGGAUGCAGAGGCGGUAGCCUUCGGUGGCGUGAUAGCGCCAACGUUCUCAACUAUGACCCGCAAAACGCGUGCUCCGUUGAAUGGAGUUUAUCAUG [C38G U45A C72U C87U A115C] as the variant, how does the “polymerase ribozyme fitness (log ratio)” value read?
The value was at most -4.2.

For GGAUCUUCUCGAUCUAACAAAAAAGACAAAUCUGCCAUAAAGCUUGAGCGCAUCUUCGGCUGCAGAGGCGGCAGCCUUCGGGAGCGCGAUAGCGCCAACGUUCUCAACUAUGACACGCAAAACGCGUGCUCCGUUGAAUGGAGUUUAUCAUG [C38U A49C A60C U82G G83A], which “polymerase ribozyme fitness (log ratio)” value is on record?
Its value is at most -4.2.

Which “polymerase ribozyme fitness (log ratio)” value does the source give for GGAUCUUCUCGAUCUAACAAAAAAGACAAAUCUGCCAGAAAGCUUGAGAGCAUCUUCGGAUUCAGAGGCGGCAGCCUUCGGUUGCGCGAUAGCGACAAUGUUCUGAACUAUGACACGCAAAACGCGUGCUCCGUUGCAUGGAGUUUAUCAUG [C38G G62U G83U C95A C99U C105G A137C] here?
Its value is at most -4.2.

Which “polymerase ribozyme fitness (log ratio)” value does the source give for GGAUCUUCUCGAUCUAACAAAAAAGACAAAUCUGCCAUAAAGCUUGAGCGCAUCUUCGGAUGCAGAGGCGGCAGCCUUCGGUGGUGCGAUAUCGCCAACGUUAUCAACUACGACACGCAAAACGCGUGCUCCGUUGAAUGGAGUUUAUCAUG [C38U A49C C85U G92U C103A U111C] here?
Its value is at most -4.2.

With GGAUCUUCUCGAUCUAACAAAAAAGACAAAUCUGCCAUGAAGCUUGAGAGCUUCUUCGGAUGCAGAGGCGGCAGUCUUCGGUGGCGCGAUAACGCCAACGUUCUCAAGUAUGACACGCAAAACGCGUGCUCCGUUGAAUGGAGUUUAGCAUG [C38U A39G A52U C75U G92A C108G U148G] as the variant, how does the “polymerase ribozyme fitness (log ratio)” value read?
Its value is at most -4.2.

For GGAUCUUCUCGAUCUAACAAAAAAGACAAAUCUGCCAGAAAGCUUGAGAGCAUCAUCGGAUGCAGAGGCGGCAGCCUUCGGUGGCGCGAUAGCGCAAACGUUCUCAACUAUGACACGCAAAACGCGUGCUCCGUUGAAUGGAGUUUAUCGUG [C38G U55A C96A A150G], which “polymerase ribozyme fitness (log ratio)” value is on record?
Its value is -2.63.

Which “polymerase ribozyme fitness (log ratio)” value does the source give for GGAUCUUCUCGAUCUAACAAAAAAGACAAAUCUGCCAGAAAGCAUGAGAGCAUCUUCGGAUGCACAGGCGGCAGCCUUCGGUGGCGCGAUAGCGCCAACGUUCUCAACUAUGACACGCAAAACGCGUGCUCCGUUGAAUGGAGUUUAUCAUG [C38G U44A G65C] here?
The value was at most -4.2.

With GGAUCUUCUCGAUCUAACAAAAAAGACAAAUCUGCCAGAAAGCUUGAGAGCAUCUUCGGAUGCAGAGGCGGCAGCCUUCGGUCGCGCGAUAGAGCCAGCGUUCUCAACUAUGACACGCAAAACGCGUGUUCCGUUGAAUGGAGUUUAUCAUG [C38G G83C C93A A98G C129U] as the variant, how does the “polymerase ribozyme fitness (log ratio)” value read?
The value was at most -4.2.
